Laboratory results taken from the supplement of paper PMC12067230.
Single values of this set are uncertain.

assay: amyloid nucleation score relative to library mode (yeast Sup35 reporter selection) (log enrichment difference); higher = more amyloid nucleation; sequences are the first 22 residues of the Bri2 peptide extended by up to 12 random residues; conditions: random library (experiment): 2;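 active = nucleation score significantly above 0 at FDR 0.05; inactive = not significantly above 0 or absent from output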
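Also: [psi-pin-] Saccharomyces cerevisiae expressing SupN fusions, induced by 100 µM Cu2SO4, selected 7 d at 30 °C without adenine and uracil, scored by deep sequencing of output versus input.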

| Sequence | amyloid nucleation score |
| --- | --- |
| EASNCFAIRHFENKFAVETLICCMRRIVV | 0.335 |
| EASNCFAIRHFENKFAVETLICICRGHHKGVIYD | inactive |
| EASNCFAIRHFENKFAVETLICELPILLYLCIW | inactive |
| EASNCFAIRHFENKFAVETLICNYKVLRICLDGQ | inactive |
| EASNCFAIRHFENKFAVETLICHNSDRLCALWTE | 1.48 |
| EASNCFAIRHFENKFAVETLICWGVSLKDGGSPS | 5.32 |
| EASNCFAIRHFENKFAVETLICLQLLRENKAQLS | inactive |
| EASNCFAIRHFENKFAVETLICFWNLYEIEGCCC | inactive |
| EASNCFAIRHFENKFAVETLICPPCLS | inactive |
| EASNCFAIRHFENKFAVETLICPELYSVHSWWFD | inactive |
| EASNCFAIRHFENKFAVETLICFDNYENVRMSWI | -0.207 |
| EASNCFAIRHFENKFAVETLICHFSGSIKRLLAC | inactive |
| EASNCFAIRHFENKFAVETLICFIHFRDSKTRRA | -0.14 |
| EASNCFAIRHFENKFAVETLICLRLW | 5.05 |
| EASNCFAIRHFENKFAVETLICKRYSSGHTSSCG | inactive |
| EASNCFAIRHFENKFAVETLICLLEYKFWKCLTW | inactive |
| EASNCFAIRHFENKFAVETLICKCLRSKPRVKVA | 4.23 |
| EASNCFAIRHFENKFAVETLICTEPECLNGVLGV | inactive |
| EASNCFAIRHFENKFAVETLICLAGQSEWECERF | inactive |
| EASNCFAIRHFENKFAVETLICRAINMAADCFLC | inactive |
| EASNCFAIRHFENKFAVETLICYLGALVVCPYYA | 5.59 |
| EASNCFAIRHFENKFAVETLICYGLGVGSCVCIL | 6.25 |
| EASNCFAIRHFENKFAVETLICVFKTGMLVVVQG | -0.255 |
| EASNCFAIRHFENKFAVETLICDYRRTSGTGACN | inactive |
| EASNCFAIRHFENKFAVETLICRAHPRGPRCSLV | -0.14 |
| EASNCFAIRHFENKFAVETLICTMAVLFGKEGAG | 4.47 |

same assay, conditions: random library (experiment): 3

| Sequence | amyloid nucleation score |
| --- | --- |
| EASNCFAIRHFENKFAVETLICILIYRCRIKM | inactive |
| EASNCFAIRHFENKFAVETLICVYNAAGRLCAFR | 0.693 |
| EASNCFAIRHFENKFAVETLICMGCGG | 8.26 |
| EASNCFAIRHFENKFAVETLICVPEELWPSFVPY | 5.21 |
| EASNCFAIRHFENKFAVETLICCSKSTLQGWVVG | 6.89 |
| EASNCFAIRHFENKFAVETLICMKSFRNQCVVSV | inactive |
| EASNCFAIRHFENKFAVETLICTRVIGRHWRRLR | 2.35 |
| EASNCFAIRHFENKFAVETLICDQFICDAAMRRW | 7.52 |
| EASNCFAIRHFENKFAVETLICQVVMKEKADPSE | 7.09 |
| EASNCFAIRHFENKFAVETLICMVLGPAGGWEHR | 5.48 |
| EASNCFAIRHFENKFAVETLICNMTRKILRIKRL | inactive |
| EASNCFAIRHFENKFAVETLICASLWRDAWQRTD | inactive |
| EASNCFAIRHFENKFAVETLICTKRWCRLLVRSC | inactive |
| EASNCFAIRHFENKFAVETLICPHSSSNGHSAWG | inactive |
| EASNCFAIRHFENKFAVETLICLTVGSCGFAALG | 3.09 |
| EASNCFAIRHFENKFAVETLICGEVGPAYRCMVG | inactive |
| EASNCFAIRHFENKFAVETLICGAEGSMTARLAR | inactive |

| Sequence | amyloid nucleation score |
| --- | --- |
| EASNCFAIRHFENKFAVETLICELRNSAWGVFRV | inactive |
| EASNCFAIRHFENKFAVETLICEDRRLSGGCMRL | -0.239 |
| EASNCFAIRHFENKFAVETLICWSRLTLGLLWMW | inactive |
| EASNCFAIRHFENKFAVETLICFVHRPCFRSVVS | 3.74 |
| EASNCFAIRHFENKFAVETLICWVLAVMCAKWGR | 0.98 |
| EASNCFAIRHFENKFAVETLICVTRCVVAQRNLT | inactive |
| EASNCFAIRHFENKFAVETLICVGVITSVAVV | 1.13 |
| EASNCFAIRHFENKFAVETLICWNLICSFGGRVM | 6.59 |
| EASNCFAIRHFENKFAVETLICHIRPSHVVWVVE | inactive |
| EASNCFAIRHFENKFAVETLICMCYGWCLVPGSG | inactive |
| EASNCFAIRHFENKFAVETLICGVCRRTCLFMLT | inactive |
| EASNCFAIRHFENKFAVETLICTSCYSLAWHAGP | 7.33 |
| EASNCFAIRHFENKFAVETLICGGMEKQGEEAWR | inactive |
| EASNCFAIRHFENKFAVETLICVCRSTVYAERPV | 2.17 |
| EASNCFAIRHFENKFAVETLICDCQSRYTQWKSS | inactive |
| EASNCFAIRHFENKFAVETLICRKTGQIWCLWPR | inactive |
